Measurements published in the antibiotic and cytotoxicity screens of Wong et al. (2023).
The other results are listed elsewhere or left out.

Each compound was assayed on HepG2 (assay: cytotoxicity call (relative viability < 0.9)). Conditions: 10 µM.

Which cytotoxicity call does the source give for `C[C@H](CO)N1C[C@H](C)[C@@H](CN(C)S(=O)(=O)c2cn(C)cn2)OCc2cnnn2CCCC1=O` here?
Its cytotoxicity call is “inactive”.

How did the cytotoxicity call turn out when `CC(C)NC(=O)Nc1ccc2c(c1)C(=O)N([C@H](C)CO)C[C@@H](C)[C@H](CN(C)C(=O)Nc1ccc(C(F)(F)F)cc1)OCCCC[C@@H](C)O2` was run?
The cytotoxicity call was “inactive”.

How did the cytotoxicity call turn out when `C[C@H]1CN([C@@H](C)CO)C(=O)Cc2cc(NC(=O)Cc3cn(C)c4ccccc34)ccc2O[C@H]1CN(C)S(=O)(=O)c1cn(C)cn1` was run?
The cytotoxicity call was “inactive”.

`C[C@H](CO)N1C[C@H](C)[C@H](CN(C)Cc2ccc3c(c2)OCO3)OCCCC[C@H](C)Oc2ccc(NC(=O)C3CCCCC3)cc2C1=O` was tested. Which cytotoxicity call did it give?
Its cytotoxicity call is “inactive”.

How did the cytotoxicity call turn out when `C[C@@H]1CN([C@H](C)CO)C(=O)c2cc(NC(=O)Nc3cccc4ccccc34)ccc2O[C@H]1CN(C)Cc1ccc(Oc2ccccc2)cc1` was run?
The cytotoxicity call was “active”.

With `O=C1/C(=C/c2cn(-c3ccccc3)nc2-c2ccc(OCc3ccccc3F)cc2)SC(=S)N1CCS(=O)(=O)O` as the compound, how does the cytotoxicity call read?
Its cytotoxicity call is “inactive”.

`C[C@H](CO)N1C[C@H](C)[C@@H](CN(C)S(=O)(=O)c2ccc(F)cc2)OCCCC[C@H](C)Oc2ccc(NC(=O)CCC(F)(F)F)cc2C1=O` was tested. Which cytotoxicity call did it give?
Its cytotoxicity call is “inactive”.

For `CN1C(=O)c2cc(NC(=O)C3CCOCC3)ccc2OC[C@@H]2O[C@H](CC(=O)NCc3ccc4c(c3)OCO4)CC[C@H]21`, which cytotoxicity call is on record?
The cytotoxicity call was “inactive”.

Which cytotoxicity call does the source give for `C[C@@H]1CCCCO[C@H](CN(C)Cc2ccc(C(F)(F)F)cc2)[C@H](C)CN([C@H](C)CO)C(=O)c2cc(NC(=O)Cc3ccccc3)ccc2O1` here?
The cytotoxicity call was “active”.

How did the cytotoxicity call turn out when `Cc1ccc(S(=O)(=O)Nc2ccc3c(c2)C(=O)N([C@@H](C)CO)C[C@@H](C)[C@H](CN(C)Cc2ccc(C(F)(F)F)cc2)OCCCC[C@H](C)O3)cc1` was run?
The cytotoxicity call was “active”.

Which cytotoxicity call does the source give for `CCc1nc2ccc(C(=O)NC3CCN(Cc4ccccc4)CC3)cn2c1N(C)Cc1cc2ccccc2s1` here?
Its cytotoxicity call is “active”.

With `C[C@@H]1CCCCO[C@H](CN(C)C(=O)CCCN(C)C)[C@@H](C)CN([C@@H](C)CO)C(=O)c2cc(NC(=O)Nc3cccc4ccccc34)ccc2O1` as the compound, how does the cytotoxicity call read?
The cytotoxicity call was “inactive”.

`Cc1cc(C(=O)Nc2ccc3c(c2)C(=O)N(C)[C@H]2CC[C@H](CC(=O)NCC(F)(F)F)O[C@@H]2CO3)no1` was tested. Which cytotoxicity call did it give?
The cytotoxicity call was “inactive”.

Which cytotoxicity call does the source give for `COc1ccccc1C#Cc1cnc2c(c1)C(=O)N([C@H](C)CO)C[C@@H](C)[C@H](CN(C)C(=O)c1ccc3c(c1)OCO3)O2` here?
The cytotoxicity call was “inactive”.

For `O=C(C[C@H]1CC[C@H]2[C@@H](COC[C@H](O)CN2S(=O)(=O)c2cccc(F)c2)O1)NCCCN1CCOCC1`, which cytotoxicity call is on record?
The cytotoxicity call was “inactive”.

Which cytotoxicity call does the source give for `C[C@H](CO)N1C[C@H](C)[C@H](CN(C)Cc2ccc(-c3ccccc3)cc2)Oc2ccc(NC(=O)Nc3cccc4ccccc34)cc2CC1=O` here?
Its cytotoxicity call is “inactive”.

How did the cytotoxicity call turn out when `Cc1ccc(S(=O)(=O)Nc2ccc3c(c2)C(=O)N([C@H](C)CO)C[C@@H](C)[C@@H](CN(C)Cc2ccc(C(=O)O)cc2)OCCCC[C@@H](C)O3)cc1` was run?
The cytotoxicity call was “inactive”.

How did the cytotoxicity call turn out when `C=CC[C@@H](CC(=O)N(CCO)Cc1ccccc1)C(=O)N[C@H](COC(=O)[C@@H](CC=C)Cc1ccc(F)cc1)c1ccccc1` was run?
The cytotoxicity call was “inactive”.

Which cytotoxicity call does the source give for `C[C@@H]1CN([C@@H](C)CO)C(=O)Cc2cc(NC(=O)Cn3cnnn3)ccc2O[C@@H]1CN(C)C(=O)Nc1ccc2c(c1)OCO2` here?
The cytotoxicity call was “inactive”.

How did the cytotoxicity call turn out when `Cc1noc(C)c1S(=O)(=O)Nc1cccc2c1O[C@H](CN(C)S(=O)(=O)c1cn(C)cn1)[C@H](C)CN([C@H](C)CO)C2=O` was run?
The cytotoxicity call was “inactive”.

Which cytotoxicity call does the source give for `C[C@H]1CCCCO[C@@H](CN(C)Cc2ccc(C(F)(F)F)cc2)[C@@H](C)CN([C@@H](C)CO)C(=O)c2cc(NS(=O)(=O)c3cn(C)cn3)ccc2O1` here?
The cytotoxicity call was “inactive”.

`COc1ccc(NC(=O)Nc2ccc3c(c2)C(=O)N([C@@H](C)CO)C[C@@H](C)[C@H](CN(C)C(=O)Nc2ccc(C(F)(F)F)cc2)OCCCC[C@@H](C)O3)cc1` was tested. Which cytotoxicity call did it give?
Its cytotoxicity call is “inactive”.

How did the cytotoxicity call turn out when `O=C(C[C@H]1C[C@@H]2c3cc(NS(=O)(=O)c4ccc(F)cc4)ccc3O[C@@H]2[C@@H](CO)O1)N1CCOCC1` was run?
Its cytotoxicity call is “inactive”.

For `C[C@@]1(N)CCCC[C@@H]1C(=O)O`, which cytotoxicity call is on record?
The cytotoxicity call was “inactive”.

How did the cytotoxicity call turn out when `C[C@H](CO)N1C[C@H](C)[C@@H](CN(C)C(=O)c2cccnc2)Oc2cc(C#CC3(O)CCCC3)ccc2S1(=O)=O` was run?
Its cytotoxicity call is “inactive”.

`Cc1ccc(S(=O)(=O)N(C)C[C@H]2Oc3c(NC(=O)c4cc(C)nn4C)cccc3C(=O)N([C@H](C)CO)C[C@@H]2C)cc1` was tested. Which cytotoxicity call did it give?
The cytotoxicity call was “inactive”.

How did the cytotoxicity call turn out when `O=C(C[C@@H]1C[C@H]2c3cc(NC(=O)C4CCOCC4)ccc3O[C@H]2[C@@H](CO)O1)NCc1cc(F)ccc1F` was run?
The cytotoxicity call was “inactive”.
